From the GPR68 mutational scans of Howard et al. (2025)
The least precise scores are not listed. The source holds two more conditions with little spread; they are left out. Names with del lack the residues named; names with ins carry added residues between the positions named. For some assays here: How much ogerin was present is not stated here.

B1: GPR68, Q15743 (parent)
chain: MGNITADNSSMSCTIDHTIHQTLAPVVYVTVLVVGFPANCLSLYFGYLQIKARNELGVYLCNLTVADLFYICSLPFWLQYVLQHDNWSHGDLSCQVCGILLYENIYISVGFLCCISVDRYLAVAHPFRFHQFRTLKAAVGVSVVIWAKELLTSIYFLMHEEVIEDENQHRVCFEHYPIQAWQRAINYYRFLVGFLFPICLLLASYQGILRAVRRSHGTQKSRKDQIQRLVLSTVVIFLACFLPYHVLLLVRSVWEASCDFAKGVFNAYHFSLLLTSFNCVADPVLYCFVSETTHRDLARLRGACLAFLTCSRTGRAREAYPLGAPEASGKSGAQGEEPELLTKLHPAFQTPNSPGSGGFPTGRLA

Columns and labels:
[1] = variants of: B1; assay: cAMP reporter score (Enrich2 score, wild type = 0); higher = more signal; HEK293T, FACS bins
[2] = variants of: B1; assay: surface expression score (Enrich2 score, wild type = 0); higher = more signal; HEK293T, FACS bins

Variant	cAMP reporter score ([1]; pH 5.5)	cAMP reporter score ([1]; pH 6)	cAMP reporter score ([1]; pH 6, modulator: ogerin)	surface expression score [2]	cAMP reporter score ([1]; pH 6.5, modulator: ogerin)
G110M	0.092	3.45	0.564	-1.74	
G110K	-0.087		0.245	-0.939	-0.139
G110Q	1.49	3.15	-0.401		1.29
G110H	1.91	4.5	1.75	0.378	1.84
G110A	0.613	0.252	0.343	0.385	0.545
G110F	2.93			-0.409	0.406
G110L	-0.278		-0.299	-1.86	-0.977
G110E	-0.452	0.735	-0.737	-0.592	-0.407
G110W	2.74		2.34	2.32	
L112del	-1.8	-1.06	-1.6	-2.08	-1.11
I105_Y106insGS	-2.58	-1.39	-3.68	-2.41	
L101_Y102insG	-1.32	-0.72	-1.77	-1.47	
G90_D91insGS	-0.457		0.028	-0.427	-1.15
I99_L100del	-1.79	-1.31	-1.6	-2.15	-1.12
V96R	-1.19	-0.366	-1.28	-1.57	-1.27
V96W	-0.513	-0.947	-1.28	-0.02	-0.967
V96T	-1.74	-0.332	-2.66	-1.89	-2.39
V96G	-0.387			-1.35	
V96L	1.25	1.45	0.117	0.524	0.22
V96Q	-1.5	-0.681	-0.367	-2.02	-0.893
V96I	-0.373	2.16	0.008	3.16	3.1
V96H	-1.59		-3.12		0.054

Variant	cAMP reporter score ([1]; pH 5.5)	cAMP reporter score ([1]; pH 6)	cAMP reporter score ([1]; pH 6, modulator: ogerin)	surface expression score [2]	cAMP reporter score ([1]; pH 6.5, modulator: ogerin)
V96M	-0.823	-0.793	-1.12	-0.812	-1.19
V96D	-1.23		-2.52	-2.02	-0.895
V96C	-1.54	-0.613	-1.3	-2.18	-2.19
V96Y	-0.586	-0.279		-0.282	-0.608
V96A	-0.4	-0.574	-1.75	0.48	0.079
V96S	-2.04	-1.07	-1.39	-1.68	-1.07
V96N	-0.681	-0.185		-1.53	-0.867
V96P	-1.92	-0.841		-0.605	
V96F	0.909	0.824	-1.15		
V96_C97insGSG	-1.55	-0.656	-1.19	-1.48	-0.865
V109_G110insGS	-0.489			-1.18	-0.679
D91_S93del	-0.889	-0.874		-0.277	
V109_G110del	-0.438	0.114	-1.64	-2.69	-0.407
C113del	-1.34	-0.837	-1.09	-2.29	-1.9
V109_F111del	-1.23	-1.03		-2.54	-1.68
Y106del	-2.59	-1	-1.31	-2.09	-1.17
A124_H125insG	-0.498	-0.955	-1.98	-2.66	-0.711
A124_H125insGS	-1.58	-0.999	-1.63	-2.05	-1.42
C94_Q95insGS	-1.6	-0.838		-0.995	-1.15
S116_V117del	-0.505	-0.313	-1.65	-2.52	-0.7
S108_V109del	-0.7	-1.45	-2.2	-2.6	-1.4
L101_Y102del	-0.989	-1.46	-1.34	-2.86	-0.587

Variant	cAMP reporter score ([1]; pH 5.5)	cAMP reporter score ([1]; pH 6)	cAMP reporter score ([1]; pH 6, modulator: ogerin)	surface expression score [2]	cAMP reporter score ([1]; pH 6.5, modulator: ogerin)
L112_C113insGS	-1.38	-1.09	-0.754	-2.45	-1.63
Y106K	-0.913	-0.099	-1.36	-0.994	-0.423
Y106S	-0.454	-1.9	-0.448	-0.86	-1.48
Y106P	-1.9		-1.69	-1.55	-0.353
Y106A	-1.15	-0.514	-1.6	-1.06	-1.19
Y106R	-1.48	-0.961	-1.75	-2.7	-1.14
Y106I	-1.28	-0.809	-1.51	-2.48	-0.827
Y106D	0.221	-0.005	-0.198	-2.01	-0.731
Y106F	-1.24	-1.19	-1.44	-2.44	-1.47
Y106W	-0.345	-1.18	-2.3	-1.85	-1.33
Y106Q	0.461	-0.287	-0.323	-1.01	-1.5
Y106N	-0.586	0.414	-2.46		-0.445
Y106C	-0.558	-0.519	-0.814	-0.665	-0.553
Y106G	-1.13	-0.829	-1.24	-2.29	-0.905
Y106E	-0.96	-1.23	-1.72	-1.59	-1.36
Y106H	-0.478	-0.196	-0.653	-0.588	-0.701
Y106T	1.07		-0.795	-2.59	-1.11
Y106M	-1.31	-1.02	-1.56	-1.09	-0.677
Y106L	-1.05	-0.672	-1.45	-2.8	-1.41
C113_C114insGSG	-0.678	-2.06			0.008
A122del	-1.6	-0.903	-1.13	-2.33	-1.11
I115del	-1.43	0.085	-1.18	-1.62	-0.566
